{
  "source": "patent EP4810038A1",
  "about": "“METHOD FOR TREATING ALK-POSITIVE OR ROS1-POSITIVE NON-SMALL CELL LUNG CANCER” (Shenzhen TargetRx Co., Ltd., priority 2023, dated 2025)",
  "system": "intracranial measurable lesions of ALK-positive advanced NSCLC",
  "assay": "Phase II single-arm trial, 60 mg QD: intracranial tumor efficacy (IRC assessment)",
  "key": {"[1]": {"conditions": "IRC, 44 subjects with intracranial measurable lesions"}, "[2]": {"conditions": "intracranial BOR, IRC assessment, full analysis set, 44 subjects with intracranial measurable target lesions, data cutoff May 20, 2024"}},
  "data": [
    {"smiles": "[2H]C([2H])([2H])n1nc2c(c1C#N)-c1cnc(N)c(c1)O[C@H](C)c1cc(F)ccc1C(=O)N(C)C2", "note": "[compound A, (10R)-7-amino-12-fluoro-2-(methyl-d3)-10,16-dimethyl-15-oxo-10,15,16,17-tetrahydro-2H-8,4-(metheno)pyrazolo[4,3-h][2,5,11]benzoxadiazacyclotetradecine-3-carbonitrile]", "values": [
      {"measurement": "IC-ORR, n (%)", "setting": "IRC assessment, full analysis set, 44 subjects with intracranial measurable target lesions, 95% CI 38.85, 69.61, data cutoff May 20, 2024", "result": "24 (54.5) n (%)"},
      {"measurement": "IC-DCR, n (%)", "setting": "IRC assessment, full analysis set, 44 subjects with intracranial measurable target lesions, 95% CI 69.93, 93.36, data cutoff May 20, 2024", "result": "37 (84.1) n (%)"},
      {"measurement": "IC-DCR", "setting": "[1]", "result": 84.1, "unit": "%"},
      {"measurement": "IC-ORR", "setting": "[1]", "result": 54.5, "unit": "%"},
      {"measurement": "intracranial best objective response CR", "setting": "[1]", "result": "No subjects"},
      {"measurement": "intracranial best objective response PR", "setting": "[1]", "result": 54.5, "unit": "%"},
      {"measurement": "median IC-DOR", "setting": "[1]", "result": 9.76, "unit": "months"},
      {"measurement": "median IC-PFS", "setting": "[1]", "result": 9.66, "unit": "months"},
      {"measurement": "median IC-TTR", "setting": "[1]", "result": 1.41, "unit": "months"},
      {"measurement": "BOR, n (%) CR", "setting": "[2]", "result": "0 n (%)"},
      {"measurement": "BOR, n (%) NE", "setting": "[2]", "result": "0 n (%)"},
      {"measurement": "BOR, n (%) PD", "setting": "[2]", "result": "7 (15.9) n (%)"},
      {"measurement": "BOR, n (%) PR", "setting": "[2]", "result": "24 (54.5) n (%)"},
      {"measurement": "BOR, n (%) SD", "setting": "[2]", "result": "13 (29.5) n (%)"}
    ]}
  ]
}
